Measurements: the supplement of paper PMC3334620
The full ranking holds about 33,000 sequences; the median of “E-score (-0.5 to 0.5)” is about -0.035, and the highest 2% start at about 0.34. Some of the results follow.

Molecular target: T1, Mot3 (UniProt P54785)
T1 sequence: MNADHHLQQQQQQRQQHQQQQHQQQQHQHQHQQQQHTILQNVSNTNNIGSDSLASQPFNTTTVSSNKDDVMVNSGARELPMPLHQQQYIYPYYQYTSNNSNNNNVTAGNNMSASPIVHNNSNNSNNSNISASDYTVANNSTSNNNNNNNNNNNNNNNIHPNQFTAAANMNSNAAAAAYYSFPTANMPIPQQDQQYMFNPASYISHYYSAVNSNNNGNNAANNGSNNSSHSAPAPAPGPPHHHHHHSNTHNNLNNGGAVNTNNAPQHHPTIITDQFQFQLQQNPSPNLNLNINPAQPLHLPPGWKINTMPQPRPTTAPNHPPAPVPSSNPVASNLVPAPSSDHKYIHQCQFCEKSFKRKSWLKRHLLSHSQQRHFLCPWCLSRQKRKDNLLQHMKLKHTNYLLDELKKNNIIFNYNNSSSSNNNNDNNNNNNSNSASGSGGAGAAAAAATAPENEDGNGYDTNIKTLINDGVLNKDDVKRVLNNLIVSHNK
Assay: PBM E-score (8-mer binding enrichment) (E-score (-0.5 to 0.5)); higher = stronger / more preferred TF binding; most listed sequences are background and not binding sites
Conditions: protein concentration: 200 nM; construct: GST-full length
Summary of the method: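 Universal all-10-mer Agilent arrays, double-stranded by primer extension on fresh or once-stripped slides, were probed with about 100-200 nM GST-tagged yeast transcription factors made by PURExpress. Fluorescent anti-GST detected bound protein, and masliner normalised the scans. E-scores from the Universal PBM Analysis Suite were given to each ungapped eight-base word pooled with its reverse complement.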

First: CAACTGTC
Second: CCGAGGCC
The “PBM E-score” value of the first is higher: -0.154 for the first, -0.338 for the second.

Going from GTCGATGA to GCGAGGTA, the “PBM E-score” value rises from -0.166 to -0.0111.

First: CGATCTGC
Second: GAATACTC
The “PBM E-score” value of the first is lower: -0.265 for the first, -0.0747 for the second.

Going from ATACGAGA to ACGTGGGG, the “PBM E-score” value falls from 0.0959 to -0.183.

Going from GACTGGGC to GGGCCGCA, the “PBM E-score” value falls from -0.137 to -0.243.

First: CCGTTAAC
Second: AAAAAATT
The “PBM E-score” value of the first is lower: 0.0218 for the first, 0.22 for the second.

First: AGTCCCAG
Second: ACGAGTAT
The “PBM E-score” value of the first is lower: -0.0882 for the first, -0.0294 for the second.

Going from ACCAAGCT to GGCAATCA, the “PBM E-score” value rises from -0.1 to 0.187.

Compared with CATGTTGG, CACCAGGG is lower in “PBM E-score” value: 0.286 for the first, -0.212 for the second.

First: CTCCTTGA
Second: AGTTGGAC
The “PBM E-score” value of the first is lower: -0.122 for the first, 0.0582 for the second.

First: ACAAACCA
Second: AACGCGCA
The “PBM E-score” value of the first is lower: -0.015 for the first, 0.156 for the second.

First: ACTGCTGA
Second: AAATGAAG
The “PBM E-score” value of the first is lower: -0.153 for the first, -0.0635 for the second.

First: CTGAGTAA
Second: ATAATAAC
The “PBM E-score” value of the first is lower: 0.0746 for the first, 0.112 for the second.

Compared with ACTCCACG, CTAAGCCA is higher in “PBM E-score” value: -0.262 for the first, -0.139 for the second.

First: AGAATAAG
Second: GCCATCTA
The “PBM E-score” value of the first is lower: -0.065 for the first, -0.0511 for the second.

Going from CCTGTAGA to AGATCAAA, the “PBM E-score” value falls from 0.159 to -0.0722.

Going from ATACCCTG to GGCATTTA, the “PBM E-score” value rises from -0.166 to 0.207.

Going from CCAGATAA to TGCCCAAA, the “PBM E-score” value rises from -0.116 to 0.167.

First: AACCTAAC
Second: AAGGTGGG
The “PBM E-score” value of the first is higher: -0.00642 for the first, -0.139 for the second.

First: ATAGCGCC
Second: CAAGCAGA
The “PBM E-score” value of the first is higher: 0.228 for the first, 0.0203 for the second.

Compared with CAACCGGC, ATTAGCTA is higher in “PBM E-score” value: -0.229 for the first, 0.137 for the second.

Going from ATTCGCCC to ACCCTGCG, the “PBM E-score” value rises from -0.214 to -0.0602.

First: AAGTGCCT
Second: ATGAGCTG
The “PBM E-score” value of the first is higher: 0.48 for the first, -0.105 for the second.

First: AGCACTAC
Second: ATGTGTAC
The “PBM E-score” value of the first is lower: -0.184 for the first, 0.285 for the second.

Compared with CCTATGGA, ACGCGTGG is lower in “PBM E-score” value: 0.0104 for the first, -0.0954 for the second.

Going from CCAGACGC to CAACTAAC, the “PBM E-score” value rises from -0.195 to 0.101.

Compared with AAACGGAA, GCGGAGGA is lower in “PBM E-score” value: -0.0641 for the first, -0.0934 for the second.

Compared with CCTGGTGC, ATATTACC is higher in “PBM E-score” value: 0.0368 for the first, 0.262 for the second.

First: TGCGCACA
Second: AATTATCG
The “PBM E-score” value of the first is lower: 0.0582 for the first, 0.11 for the second.

First: TACTAGTA
Second: GAGGTCCC
The “PBM E-score” value of the first is higher: 0.296 for the first, -0.303 for the second.

Compared with ACATAGGA, GCTCTCGA is lower in “PBM E-score” value: 0.0993 for the first, -0.119 for the second.

Compared with CAGCCGCC, ACTAGAGC is higher in “PBM E-score” value: -0.28 for the first, -0.122 for the second.

First: AATATAGC
Second: AGAAGAAA
The “PBM E-score” value of the first is higher: 0.0407 for the first, -0.00366 for the second.

First: GCTAGCAA
Second: CGCGGGGC
The “PBM E-score” value of the first is higher: -0.0278 for the first, -0.0394 for the second.

Compared with AATCGGGG, GAGTTCGA is higher in “PBM E-score” value: -0.109 for the first, 0.00472 for the second.

Compared with GCTAACTA, AACGGCGT is higher in “PBM E-score” value: 0.00452 for the first, 0.0368 for the second.

Going from CGACTTAG to AGTACGAG, the “PBM E-score” value rises from -0.183 to -0.147.

Compared with ACTAACAT, ACCAAACG is lower in “PBM E-score” value: 0.287 for the first, -0.18 for the second.

Going from CTACTGTC to ACTCCAGT, the “PBM E-score” value falls from -0.103 to -0.369.

Going from GAGTTTAC to GCCCTAAA, the “PBM E-score” value falls from 0.193 to -0.125.

Going from ACTCTTCG to GCCCCTTA, the “PBM E-score” value falls from -0.0917 to -0.22.

Going from AGCAGATG to CCATTTCA, the “PBM E-score” value falls from -0.136 to -0.142.

Going from CGCGACTC to TATAGAGA, the “PBM E-score” value rises from -0.218 to -0.0555.
